Measurements as given in PubChem BioAssay AID686978 (National Center for Advancing Translational Sciences (NCATS), 2013).
Several values for one entry are separate records, joined by “and”; a condition that tells them apart may be missing. Equal entries are not always repeated. The whole screen tested about 420,000 compounds, of which about 64,000 (15%) were called active. Inconclusive means that the source gave no clear call. Such entries were picked first, then a sample of the others. The call rests on the fitted dose curve; in most records, active means well fitted inhibition curve with a large enough effect; inconclusive means small, poorly fitted or top-dose-only effect; inactive means flat fitted curve, though single readings scatter. No potency is given beside an inconclusive call; the fits are too rough. Some compounds were tested as several samples or in several runs, with calls that do not always agree.

Test: qHTS for Inhibitors of human tyrosyl-DNA phosphodiesterase 1 (TDP1): qHTS in cells in absence of CPT; further: nearly all actives have a fitted effect of over 55% in size
Settings: DT40 Tdp1-/- hTDP1 cells, no CPT, ATP luminescence, 48 h; activity change, negative = growth inhibition: at 46.2 µM (top of the series)
Method in brief: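 DT40 Tdp1-/-;hTDP1 cells, no CPT (DMSO vehicle only), 400 cells/well; compounds pin-transferred; ≥48 hr, 37 °C; CellTiter-Glo 30 min RT dark, luminescence read.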
On the % scale 0 is the no-effect control and ±100 the full control effect; potency means the concentration at half of the fitted maximal effect; tags describe the fitted curve by direction and shape.

| Structure (SMILES) | Potency | activity change, negative = growth inhibition |
| --- | --- | --- |
| COc1ccc(-c2nsc(SCC(=O)NCC3CCCO3)n2)cc1 (centres undefined) | inactive |  |
| COCCNC(=O)c1cc(-c2cccnc2)nc2ccc(Br)cc12 |  | inconclusive: -32% [inhibitor] |
| Cc1c(C(=O)Nc2ccccc2C(=O)N2CCOCC2)cccc1[N+](=O)[O-] | inactive |  |
| CC(C)(C)c1ccc(NC(=O)Cn2cnc3cc([N+](=O)[O-])ccc3c2=O)cc1 | inconclusive [inhibitor, partial curve] |  |
| COc1cc(Cl)c(C)cc1NC(=O)CN1CCN(C(=O)c2cccs2)CC1 | inconclusive [inhibitor, single point] |  |
| CCCCCn1c(SC(C)C(C)=O)nc2c1c(=O)[nH]c(=O)n2C (centres undefined) | inconclusive [inhibitor, single point] |  |
| CCCc1[nH]nc2c1C(c1ccoc1)C(C#N)=C(N)O2 (centres undefined) | inconclusive [inhibitor, single point] |  |
| COc1ccc2cccc(N3CCN(CCNC(=O)c4ccc(F)cc4)CC3)c2c1 | active: 21.1 µM |  |
| NC(=O)c1ncn([C@@H]2O[C@H](CNS(=O)(=O)c3cc4ccccc4s3)[C@@H](O)[C@H]2O)n1 | inactive |  |
| O=C(O)[C@H]1/C(=C/CO)O[C@@H]2CC(=O)N21 | inactive |  |
| O=c1ccc(Cc2ccccn2)n[nH]1 | inactive |  |
| CC1Cc2ccccc2N1C(=O)C1CCCN(S(=O)(=O)c2cccc3nsnc23)C1 (centres undefined) | active: 14.6 µM |  |
| CC(C)CCOc1ccc(C2(C)NC(=O)N(CN3CCOCC3)C2=O)cc1 (centres undefined) | inconclusive [inhibitor, single point] |  |
| COC(=O)Cc1csc(NC(=O)c2ccc3ncsc3c2)n1 | inconclusive [inhibitor, single point] |  |
| Cc1sc(-n2c(C)cc(/C=N/n3cnnc3)c2C)c(C#N)c1C | active: 20.6 µM |  |
| CC(C)c1ccc(NC(=O)CN(Cc2ccccc2)S(C)(=O)=O)cc1 | inconclusive [inhibitor, partial curve, poor fit] |  |
| Cc1csc(NC(=O)C(C)Oc2ccc(Cl)cc2C)n1 (centres undefined) | inconclusive [inhibitor, single point] |  |
| CC(=O)Nc1ccc(SCC(=O)c2cc(C)n(-c3ccccc3F)c2C)cc1 | inconclusive [inhibitor, single point] |  |
| C=CCN1N=C(c2ccc(NC(=O)c3ccccc3)cc2)CSC1=O | inconclusive [inhibitor, partial curve] |  |
| COc1ccc(NC(=O)c2cc(-c3cc(F)ccc3OC)n[nH]2)c(OC)c1 | inconclusive [inhibitor, single point] |  |
| Cc1cc(C)c(S(=O)(=O)Nc2cccc3nsnc23)c(C)c1 | inconclusive [inhibitor, single point] |  |
| COc1ccc2cc(Br)ccc2c1CC(=O)NC1CC(C)(C)NC(C)(C)C1 | active: 23.1 µM |  |
| CC1=Nc2ccccc2/C1=C\c1nc(-c2ccc(F)cc2)oc1O | inconclusive [inhibitor, single point] |  |

| Structure (SMILES) | Potency | activity change, negative = growth inhibition |
| --- | --- | --- |
| COc1ccc(S(=O)(=O)N2CCCCC2)cc1NC(=O)CN(Cc1ccco1)Cc1ccco1 | inconclusive [inhibitor, single point] |  |
| COc1cc2cc(CN(CCc3cccc(C)c3)C(=S)NCCCN3CCOCC3)c(=O)[nH]c2cc1OC | inconclusive [inhibitor, single point] |  |
| COc1ccc(NC(=O)c2cnc(NS(=O)(=O)c3ccccc3)nc2)cc1 | inactive |  |
| CC(=O)N1CCN(c2nc3ccc([N+](=O)[O-])cc3s2)CC1 | inconclusive [inhibitor, single point] |  |
| CC(=O)N1CCN(S(=O)(=O)c2cccc(C(=O)NNC(=O)COc3c(C)cccc3C)c2)CC1 | inactive |  |
| O=C(/C=C\Nc1ccc2c(c1)OCO2)c1ccc2c(c1)OCO2 | inconclusive [inhibitor, single point] |  |
| CC(/C=C/c1ccccc1)=N/NC(=O)C(O)c1ccccc1 (centres undefined) | inconclusive [inhibitor, single point] |  |
| CCOC(=O)c1ccc(NC(=O)CCCc2nc(-c3cc(OC)c(OC)c(OC)c3)no2)cc1 | inconclusive [inhibitor, single point] |  |
| CCCCNC(=O)c1c(O)c2cccc3c2n(c1=O)CCC3 | inconclusive [inhibitor, single point] |  |
| Cc1nc2ccc(NS(=O)(=O)c3c(C)c(C)cc(C)c3C)cc2s1 | active: 20.6 µM |  |
| CC(C)C(=O)NC(=S)Nc1c(Cl)ccc2nsnc12 | inconclusive [inhibitor, single point] |  |
| O=C(CCCC(=O)NC1CCCCC1)Nc1ccc([N+](=O)[O-])cc1 | inconclusive [inhibitor, single point] |  |
| O=C(CN1C=NS(=O)(=O)c2ccccc21)Nc1ccccc1F | inactive |  |
| O=C(NCc1ccccc1F)C1CCCN(C(=O)N2CCOc3ccccc32)C1 (centres undefined) | inconclusive [inhibitor, single point] |  |
| CCOc1ccc(S(=O)(=O)N(CC(=O)Nc2ccc(OC)cc2OC)c2ccccc2)cc1 | inconclusive [inhibitor, partial curve] |  |
| COC(=O)c1sccc1NC(=O)c1c(Cl)cccc1Cl | inconclusive [inhibitor, single point] |  |
| Cc1ccc(S(=O)(=O)/C(C#N)=C/c2ccccc2OCc2ccccc2)cc1 | inconclusive [inhibitor, single point] |  |
| COc1ccc2nc(SCc3cccc(C)c3)nc(C)c2c1 | inconclusive [inhibitor, single point] |  |
| COc1ccc(C(=O)Nc2nc3cc4c(cc3s2)OCCO4)c(OC)c1 | inconclusive [inhibitor, partial curve] |  |
| Cc1ccc(C(=O)Nc2ccc(Cl)cc2C)c(Cl)c1 |  | inconclusive: -31% [inhibitor] |
| CNc1nc(-c2ccccc2)c2sccc2n1 | inconclusive [inhibitor, full curve, poor fit] |  |
| CCN(Cc1nc2ccccc2n1C)c1ccccc1 | inconclusive [inhibitor, single point] |  |
| COc1ccc(S(=O)(=O)N(CC(=O)N2CCc3ccccc3C2)c2ccc(C)cc2)cc1 | inconclusive [inhibitor, single point] |  |

| Structure (SMILES) | Potency | activity change, negative = growth inhibition |
| --- | --- | --- |
| CCCCN(CC)CCNC(=O)c1cc2c(=O)n(C)c3ccccc3c2n1C | active: 14.6 µM |  |
| OC(Cc1ccccc1)c1ncc(-c2ccc(Cl)cc2)[nH]1 (centres undefined) | active: 16.4 µM |  |
| CC(C)(C)NC(=S)N/N=C/c1cc(Br)c(O)c(Br)c1 | inconclusive [inhibitor, partial curve] |  |
| CN(C)c1ccc(C(=S)NC2CCCCC2)cc1 | inconclusive [inhibitor, single point] |  |
| COc1ccc(C(=O)CC(=O)C(=O)Nc2cc(OC)ccc2OC)cc1 | inconclusive [inhibitor, partial curve] |  |
| CCOc1ccc(/C=C2\SC(=S)N(N3C(=O)C4CC4C3=O)C2=O)cc1 (centres undefined) | inactive |  |
| COc1ccc(OC)c(CNS(=O)(=O)c2ccc3c(c2)oc(=O)n3C)c1 | inconclusive [inhibitor, partial curve, poor fit] |  |
| Cc1onc(-c2c(F)cccc2Cl)c1C(=O)Oc1ccccc1 | active: 13 µM |  |
| CCCCN(C)CCNC(=O)c1c[nH]c2ccc(S(=O)(=O)N(CC)CC)cc2c1=O | inactive |  |
| COc1ccc(C)cc1N(C(=O)Cn1nnc(-c2ccc(C)o2)n1)C(C(=O)NC1CCCC1)c1ccncc1 (centres undefined) | inconclusive [inhibitor, single point] |  |
| O=C(CSc1nnc(CN2CCOCC2)n1-c1ccc(Cl)cc1)Nc1cc(Cl)ccc1O | inconclusive [inhibitor, single point] |  |
| Cc1nc2cc(-c3ccccc3)ccc2o1 | inconclusive [inhibitor, single point] |  |
| CCc1ccc(-c2ccc(SCc3ccccn3)nn2)cc1 | inconclusive [inhibitor, partial curve, poor fit] |  |
| COc1ccc(S(=O)(=O)N2CCc3cc4c(cc3C2C)OCCCO4)cc1 (centres undefined) | inconclusive [inhibitor, single point] |  |
| COc1ccc(N2C(=O)CS(=O)(=O)C23C(=O)N(Cc2ccccc2F)c2ccccc23)cc1Cl (centres undefined) | inconclusive [inhibitor, single point] |  |
| O=S(=O)(c1cccc(C(F)(F)F)c1)N1CCN(C(=S)NC2CC2)CC1 | inactive |  |
| Cc1nn(C(C)C(=O)N2CCN(c3ccc(F)cc3)CC2)c(=O)c2c1sc1ccccc12 (centres undefined) | inactive |  |
| Cc1nnc(NC(=O)CCC(=O)N2CCN(CCOc3cccc4ccccc34)CC2)s1 | active: 23.1 µM |  |
| CCn1cc(C(=O)NCCc2ccccc2)c(=O)c2cc(S(=O)(=O)N3CCCCCC3)ccc21 | inconclusive [inhibitor, single point] |  |
| O=C(N1CCOCC1)N1CCCC(c2nc(-c3cccs3)no2)C1 (centres undefined) | inactive |  |
| COc1ccc(Br)cc1CNC(=O)c1cc(=O)[nH]c2ccc(S(=O)(=O)N3CCCCC3C)cc12 (centres undefined) | inconclusive [inhibitor, single point] |  |
| C=C(C)Cn1c(SCC)nc2ccccc2c1=O | inactive and active: 10 µM |  |
| O=C1CC(=C2c3ccccc3-c3ccccc32)C(=O)N1CCN1CCN(c2ccccc2)CC1 | inconclusive [inhibitor, partial curve] |  |
